{"source": "the supplement of paper PMC11417369", "note": "Some of the results follow."}
{"tested_on": "PfAP2-HC AP2 domain (GST-tagged)", "assay": "gcPBM binding intensity (ln(normalized median fluorescence intensity)); higher = stronger DNA binding", "method_in_brief": "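Binding intensity is the highest Masliner-normalised natural-log median intensity over replicate spots in either probe orientation. To obtain it, GST-tagged P. falciparum DNA-binding domains made in E. coli were incubated for 1 h on an Agilent 4 × 180k array of primer-extended double-stranded 36-bp intergenic genomic probes plus negative controls. Detection used Alexa488 anti-GST antibody with scanning at 488 nm.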"}
{"sequence": "AGAAGAAAAGTAAAAAGTACATTATTCATGGCCTAT [XGTACX_site5601]", "gcPBM binding intensity (ln)": 9.6}
{"sequence": "TTTGAGATAAAAGACTGTACTTAGAATGTATAAAAA [XGTACX_site203]", "gcPBM binding intensity (ln)": 9.51}
{"sequence": "AAAAAAAAAAAAAACTGTACCAAAAAGAATATATAC [XGTACX_site8345]", "gcPBM binding intensity (ln)": 9.71}
{"sequence": "TTTAATTTTATATAGAGTACAAAAAAATAGAAAGAT [XGTACX_site3870]", "gcPBM binding intensity (ln)": 9.8}
{"sequence": "ATATATATATATATATGTACATAAATATTTTAAAAT [XGTACX_site4980]", "gcPBM binding intensity (ln)": 9.85}
{"sequence": "ATATATATATATATATGTACACATATACGCTTTTTC [XGTACX_site3838]", "gcPBM binding intensity (ln)": 9.65}
{"sequence": "TTGTTTCTACAATTTAATAAAATACGTTTTCAAAAA [XGTACX_negctrl_site377]", "gcPBM binding intensity (ln)": 9.05}
{"sequence": "TACTCCTTAAATATATGTAAAGGAAGAAAAAAAAAA [XGTACX_negctrl_site306]", "gcPBM binding intensity (ln)": 9.43}
{"sequence": "ACAATAAAAATAAAAAGTACAAATAAAAAAAATAAA [XGTACX_site6718]", "gcPBM binding intensity (ln)": 9.82}
{"sequence": "TATAATAATACGTATTGTACTATTAGGTTAATTCGT [XGTACX_site264]", "gcPBM binding intensity (ln)": 9.68}
{"sequence": "TTTTCTTGTAAATTACGTACGAATGTGTAGAGAAAT [XGTACX_site1339]", "gcPBM binding intensity (ln)": 9.47}
{"sequence": "TCTATAAAGGAATATACACACATATATATATATATA [CACACA_site410]", "gcPBM binding intensity (ln)": 9.66}
{"sequence": "ACTTGTAAGAAACACACACACACACCCATATATATA [CACACA_site796]", "gcPBM binding intensity (ln)": 11.5}
{"sequence": "AAGTAAAATAAGTATACACACATAAATATATATATA [CACACA_site685]", "gcPBM binding intensity (ln)": 10.1}
{"sequence": "TAAAATATAAAACACACACACATATATATATATATT [CACACA_site224]", "gcPBM binding intensity (ln)": 10.3}
{"sequence": "ATCCTCTTTACAATATGTACATAAATATATATTTAT [XGTACX_site8001]", "gcPBM binding intensity (ln)": 10.2}
{"sequence": "TATATATATAAATACACACACATATATATATATATA [CACACA_site4867]", "gcPBM binding intensity (ln)": 9.84}
{"sequence": "TATATATTTTTATTATGTACATATTAACAATGTGTT [XGTACX_site879]", "gcPBM binding intensity (ln)": 9.77}
{"sequence": "TATTCCCTTCTTCCTTCTGTTTTTGATATTAAAGGG [GTGCAC_negctrl_site270]", "gcPBM binding intensity (ln)": 9.51}
{"sequence": "ATACTTTATTCGTTAGCACACAATTCAAGTTGATTC [CACACA_site1123]", "gcPBM binding intensity (ln)": 9.86}
{"sequence": "AAGATACCCCAAAATTGTACATATTAAAATAATAAA [XGTACX_site3603]", "gcPBM binding intensity (ln)": 9.52}
{"sequence": "ATAAAATAAACATAAATAAACATAAATAAACAAAAA [CACACA_negctrl_site1270]", "gcPBM binding intensity (ln)": 9.96}
{"sequence": "AGGTATATATACATATGTACGTATATATATATATAT [XGTACX_site5115]", "gcPBM binding intensity (ln)": 10.3}
{"sequence": "TTTAAAAATAAAAGTACACACATAAACATATTACAC [CACACA_site1428]", "gcPBM binding intensity (ln)": 9.97}
{"sequence": "TATAATACAACATGCACACATATATATGTGAATCTC [CACACA_site2490]", "gcPBM binding intensity (ln)": 9.95}
{"sequence": "TTATATAAATTATTTACACACAAACATTTATACTTT [CACACA_site3449]", "gcPBM binding intensity (ln)": 9.91}
{"sequence": "TTTCTAATTTATATCACACACATATTTATATAGTAA [CACACA_site6813]", "gcPBM binding intensity (ln)": 9.83}
{"sequence": "GGCGTATGTGTATATACACACCCACGTATATAAATA [CACACA_site7489]", "gcPBM binding intensity (ln)": 9.67}
{"sequence": "TTTCTTTTTTTTTTTTTTTCTTTTTTTTTTTTTTTC [CACACA_negctrl_site1025]", "gcPBM binding intensity (ln)": 9.2}
{"sequence": "GGAATATTTTATGAGTGTACATTTTTTTTTTTTTTT [XGTACX_site2370]", "gcPBM binding intensity (ln)": 9.54}
{"sequence": "ATAATCCAACTTTGAGTGCGTGGTGTTTTTTTTTTC", "gcPBM binding intensity (ln)": 10.1}
{"sequence": "AAAAAAAAAAATAAATAAATAAATAAATATATATAT [TGCATGCA_negctrl_site468]", "gcPBM binding intensity (ln)": 9.56}
{"sequence": "TACATACATATATATACACACATATATAATATATAT [CACACA_site388]", "gcPBM binding intensity (ln)": 9.92}
{"sequence": "TATATATACATATACACACATACGTACATACATATA [CACACA_site3585]", "gcPBM binding intensity (ln)": 10}
{"sequence": "ATATTCATATATACTTCACACACATTTTATCATTCA [CACACA_site8784]", "gcPBM binding intensity (ln)": 10}
{"sequence": "ATGAAAGTAAGACATGCATGGAATTTTTTTTATTAG [TGCATGCA_site348]", "gcPBM binding intensity (ln)": 9.68}
{"sequence": "TTTTTTGTGTTTGGTACACACGTTATAAAAAATAAA [CACACA_site4866]", "gcPBM binding intensity (ln)": 9.56}
{"sequence": "TTTTTTTTTTTTGAAGTGCATTACTTTTTTTGTATT [GTGCAC_site9811]", "gcPBM binding intensity (ln)": 9.46}
{"sequence": "GAAAATAGCTAAAATACACACAATTAAAAATTATTA [CACACA_site3506]", "gcPBM binding intensity (ln)": 9.74}
{"sequence": "AGGAATATAAAGTGCACACATAATTTGGGGGCAAAA [CACACA_site258]", "gcPBM binding intensity (ln)": 10.1}
{"sequence": "ATATGTCACTTGTATACACACATATATATTTCAATC [CACACA_site3256]", "gcPBM binding intensity (ln)": 10.1}
{"sequence": "CTGAAAAAAAAGCTTGCACACGTATTTGCTTTATGT [CACACA_site8427]", "gcPBM binding intensity (ln)": 10}
{"sequence": "TTACTTATAAATAAATATACAAAAATGTTATATATA [XGTACX_negctrl_site223]", "gcPBM binding intensity (ln)": 9.39}
{"sequence": "TTTTTTTTTTTTTGCACACACATTGAATTATTATTC [CACACA_site197]", "gcPBM binding intensity (ln)": 10.2}
